One substance from paper PMC12350791 can be followed below.

This assay concerns the target T1, Translin-associated protein X (UniProt Q99598).
T1 sequence: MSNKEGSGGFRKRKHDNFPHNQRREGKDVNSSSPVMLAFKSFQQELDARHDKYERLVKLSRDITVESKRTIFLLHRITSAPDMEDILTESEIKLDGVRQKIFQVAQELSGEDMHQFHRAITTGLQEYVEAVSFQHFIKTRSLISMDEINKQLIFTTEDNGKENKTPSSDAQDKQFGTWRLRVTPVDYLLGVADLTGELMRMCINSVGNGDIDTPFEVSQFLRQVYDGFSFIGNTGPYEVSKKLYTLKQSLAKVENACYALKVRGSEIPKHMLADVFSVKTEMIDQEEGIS
The experiment in a line: cross-linking mass spectrometry.

Take Translin: the “listed as a hit” value was “yes”.
